Some of the results follow. At the low end of the ranking the order means little.
Molecular target: T1, GST-Rok-C97-191 (UniProt O34857)
T1 sequence: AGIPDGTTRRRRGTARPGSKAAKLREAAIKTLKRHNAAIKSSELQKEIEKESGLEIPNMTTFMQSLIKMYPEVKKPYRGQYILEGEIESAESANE
Experiment: protein binding microarray;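 note: rank score from −0.5 (least bound) to 0.5 (best bound)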
Conditions: Rok is a gene silencer of Bacillus subtilis; high values mean tight binding; most listed sequences are background and not binding sites; double strand, one strand shown

Row | Sequence | binding signal [E-score]
1 | AGCAAAGC | -0.0396
2 | ACCCGTGG | -0.184
3 | CGGCATAA | -0.0226
4 | CTCGTTCA | -0.155
5 | CAGTACTA | 0.264
6 | CGGCCAGA | -0.075
7 | GAGATGGA | -0.0593
8 | GGCCATAA | -0.115
9 | AATGCAGA | 0.0249
10 | CTAAGTTC | -0.00117
11 | CACTAATC | 0.1
12 | GCAGTTAA | 0.177
13 | AAGCGTGA | -0.184
14 | AAGCACGA | 0.0891
15 | TAAACATA | 0.263
16 | ACCATGGA | 0.0364
17 | CGTGATGC | -0.183
18 | AGTTCTAA | 0.142
19 | AGCCTCAA | -0.0292
20 | ACCTTCGT | -0.187
21 | CTTGCACA | 0.0299
22 | CCGAAGTA | -0.00374
23 | CCCGTGGA | -0.274
24 | CTGGAGCC | -0.167
25 | ATCACACA | 0.0412

Row | Sequence | binding signal [E-score]
26 | ACAAACCT | -0.0156
27 | CTATAGTA | 0.371
28 | GCTGACAC | -0.0132
29 | AGGAAGTG | -0.122
30 | CGTATGTA | 0.214
31 | AAGTGCCG | -0.15
32 | GACTAAGA | 0.158
33 | CCAAGAAC | -0.109
34 | TTGGTAAA | 0.207
35 | AAGGCTAA | -0.135
36 | GATTAAAC | -0.0781
37 | ACATCCCC | -0.166
38 | CACTTTCC | 0.0258
39 | GATCCGCC | -0.221
40 | ACAGTGTC | 0.0893
41 | AGACCCTC | -0.321
42 | AGAGATAC | 0.166
43 | CACCCATA | 0.11
44 | CTGATTTC | 0.0533
45 | CTGTTTAA | -0.0615
46 | GTAACCCA | -0.023
47 | GAATTACA | 0.275
48 | TACTCTCA | 0.0486
49 | CGCACACA | -0.142
50 | ATGCTCAC | -0.051

Row | Sequence | binding signal [E-score]
51 | ATGGGATC | -0.169
52 | CAATGCTC | -0.169
53 | ACCGTGGC | -0.127
54 | AGGACACT | -0.0734
55 | GGACTGAA | -0.103
56 | ACTTTCAC | 0.0142
57 | TGACGTAA | -0.0454
58 | GGTTGCAA | -0.107
59 | TCGTTGCA | 0.0683
60 | CGCGTGCC | -0.342
61 | GCGCAACA | 9.73e-05
62 | ACACTAAC | 0.101
63 | CTCGGCCA | -0.0679
64 | GGGAACCA | -0.282
65 | AATTCTTC | 0.0496
66 | CCGACGCC | -0.268
67 | CCACGTTA | 0.185
68 | GAGTCTAC | -0.0709
69 | ACGCGGTC | -0.114
70 | GTGGGAGA | -0.209
71 | AATAGAGC | -0.02
72 | CCAAAGTC | -0.116
73 | AAGCTCAC | 0.0253
74 | CACGCTGC | -0.232
75 | CTCGGGCA | -0.105

Row | Sequence | binding signal [E-score]
76 | GAATACGA | -0.016
77 | GCCAGTTA | 0.24
78 | TAACTGGA | 0.139
79 | AAGGCAAC | -0.0728
80 | AGAGATCA | -0.172
81 | ACACCTTC | -0.0523
82 | CTTAGAAC | 0.124
83 | GGAACCTA | 0.13
84 | GCCCTGCC | -0.301
85 | ACTGGAAT | 0.088
86 | CATGGTCA | -0.067
87 | ACTGCGCG | -0.0406
88 | AGTCCGAG | -0.355
89 | TCGCACGA | -0.0689
90 | CACAAACA | 0.0612
91 | CACCTCAG | -0.24
92 | GATCAACA | -0.115
93 | AATTATGG | 0.249
94 | CGAGAACC | -0.131
95 | CGCCCAGA | -0.293
96 | CCAGGTAA | -0.0546
97 | CGAAGGAA | -0.177
98 | AAGTTGAG | -0.0126
99 | AGACACAA | 0.015
100 | CATAGTTC | 0.168

Row | Sequence | binding signal [E-score]
101 | GGCTTTAA | -0.0588
102 | GCTGAGGA | -0.155
103 | AGTCGGCC | -0.129
104 | GGCCAGTA | -0.111
105 | AACTCGCA | 0.067
106 | ATCCTCAT | -0.00756
107 | ATGTCTCG | 0.0615
108 | CACTGTAA | 0.104
109 | AACGGTCG | -0.155
110 | GATTATTA | 0.225
111 | ACGAGCTA | -0.0707
112 | CGTGGAGA | 0.0304
113 | AATCAGTG | 0.0771
114 | CAGCAGGC | -0.193
115 | GACTTGCC | 0.051
116 | AGACGAGA | -0.00949
117 | AAGCGCCA | -0.328
118 | ACGTCAGC | 0.0192
119 | AGCTAGTA | 0.336
120 | CGTGCCAG | -0.155
121 | ACATTAAT | 0.311
122 | ATGATTTG | -0.0391
123 | AATGTACT | 0.296
124 | CTTCCGTA | 0.0459
125 | GAAGACTC | -0.238

Row | Sequence | binding signal [E-score]
126 | AGTTCGAT | 0.265
127 | CGGCTCCA | -0.267
128 | AGACATTC | 0.0137
129 | CGGCTGGA | -0.165
130 | ACACGATA | 0.00577
131 | GCCACGAC | -0.199
132 | ATATATGA | 0.329
133 | AAGATTGG | 0.11
134 | GAATGCGA | 0.0482
135 | AATCGAAT | -0.0342
136 | CTCGAGTA | -0.0872
137 | AGGCATCG | 0.126
138 | CAACCCTC | -0.164
139 | AAGCACTC | -0.185
140 | ATGGACAG | -0.0644
141 | TGTTAACA | 0.294
142 | AAACGCTC | -0.13
143 | ATCGACTG | 0.013
144 | AAACCGAC | -0.0913
145 | GTCCCCAC | -0.32
146 | AAGCAGAG | -0.0342
147 | GAGCCTTA | -0.0648
148 | ACGCTTTC | -0.059
149 | TTCGCAAA | 0.0527
150 | GCCGCCCA | -0.137

Row | Sequence | binding signal [E-score]
151 | AACAACGA | 0.0531
152 | CCCGTCTA | -0.217
153 | TCCGGGAA | -0.111
154 | CCGCACCC | -0.264
155 | AGTCGACT | 0.0786
156 | CTGCTCCC | -0.345
157 | ACTTTAAA | 0.152
158 | GCCCTGCA | -0.172
159 | CCACGGGC | -0.279
160 | TATCAGGA | 0.143
161 | CGCCAGTA | -0.0509
162 | AGCGCTAT | -0.0227
163 | ATCCGTCC | -0.186
164 | AGGGGCTG | -0.369
165 | ACAGCAGC | -0.138
166 | CATGGCGG | -0.194
167 | ACCCGTCC | -0.0808
168 | AGAACCGG | -0.264
169 | ACTTAACC | 0.0427
170 | CTTGCTAC | 0.0474
171 | CGGTATAC | 0.031
172 | CCACAGCC | -0.151
173 | AGTGCACG | -0.123
174 | CCCCGTCG | -0.378
175 | ACTTTTTG | -0.0572

Row | Sequence | binding signal [E-score]
176 | AATCGCGC | 0.0538
177 | CCTTCAAG | -0.205
178 | AGGTTTAG | 0.027
179 | CATTTGAG | -0.0786
180 | AGGGCCTA | -0.147
181 | AAATATCA | 0.252
182 | AAGCCGCT | -0.0453
183 | CCCCGGTA | 0.0862
184 | CCTGCGAC | -0.224
185 | GAAGGGTC | -0.284
186 | GATCCGGA | 0.00879
187 | AATACGGT | 0.19
188 | GTTGGCCA | -0.0707
189 | TACAACGA | 0.163
190 | ACGCATGA | -0.158
191 | GACGCGGC | -0.272
192 | AATTGACA | 0.0748
193 | ATGGGGTG | -0.148
194 | AGTGCGAC | -0.0204
195 | AGCGATTA | 0.0308
196 | CCGTACAG | -0.0637
197 | AATTGCTG | 0.212
198 | TCGTGAAA | 0.0565
199 | CCGCGCAA | -0.118
200 | AGTAGCTC | 0.14

Row | Sequence | binding signal [E-score]
201 | ACAATGCC | -0.166
202 | CGCCGCAA | -0.234
203 | ACAGGGTG | -0.121
204 | GTTGATTA | 0.195
205 | TAAATGTA | 0.399
206 | ACTGTCCT | 0.0569
207 | AAGCGCGC | -0.255
208 | CTAAGGGA | -0.171
209 | AAATATAT | 0.417
210 | GGCTAAGA | 0.0221
211 | CATAGGTA | 0.14
212 | CATAAATG | 0.0536
213 | GAGAAAAA | 0.0631
214 | ACTCCTCT | -0.0807
215 | GCACAGTA | -0.172
216 | GATCGTGA | -0.311
217 | CAAGTTTC | 0.00138
218 | AAACCAAA | -0.0538
219 | AAACATTT | 0.0169

Source: article PMC6212790
